Measured values from article PMC7895950.
These are yes or no findings as the source states them, for the method shown. Binding seen in cells or lysates may run through a third protein. Some entries that bind do so weakly or less than the wild type. For some assays here: Tags and fused reporters may be left off the sequences shown. One block for each binder: values may come before it.

The chains behind the UniProt entries cited, without tags or fusion partners.
UniProt Q15910: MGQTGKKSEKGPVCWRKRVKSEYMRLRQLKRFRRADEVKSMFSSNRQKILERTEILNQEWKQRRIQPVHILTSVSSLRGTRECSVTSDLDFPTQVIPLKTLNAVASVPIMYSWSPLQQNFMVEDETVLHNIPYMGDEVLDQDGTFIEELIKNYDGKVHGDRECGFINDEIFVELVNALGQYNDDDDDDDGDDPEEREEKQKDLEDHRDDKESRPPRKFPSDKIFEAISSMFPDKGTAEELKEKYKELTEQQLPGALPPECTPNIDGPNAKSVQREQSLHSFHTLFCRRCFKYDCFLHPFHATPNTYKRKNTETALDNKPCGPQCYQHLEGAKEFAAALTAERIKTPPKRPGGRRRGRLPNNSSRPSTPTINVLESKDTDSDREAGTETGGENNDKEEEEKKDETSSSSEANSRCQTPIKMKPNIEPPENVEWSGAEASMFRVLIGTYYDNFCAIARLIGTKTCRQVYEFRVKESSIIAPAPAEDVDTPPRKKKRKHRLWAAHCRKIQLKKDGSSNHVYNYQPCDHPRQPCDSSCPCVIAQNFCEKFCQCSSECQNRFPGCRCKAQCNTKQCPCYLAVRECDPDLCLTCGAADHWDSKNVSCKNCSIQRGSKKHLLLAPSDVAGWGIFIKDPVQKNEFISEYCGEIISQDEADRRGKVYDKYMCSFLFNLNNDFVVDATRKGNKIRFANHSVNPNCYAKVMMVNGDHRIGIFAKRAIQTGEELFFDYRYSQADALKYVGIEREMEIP
UniProt Q13547: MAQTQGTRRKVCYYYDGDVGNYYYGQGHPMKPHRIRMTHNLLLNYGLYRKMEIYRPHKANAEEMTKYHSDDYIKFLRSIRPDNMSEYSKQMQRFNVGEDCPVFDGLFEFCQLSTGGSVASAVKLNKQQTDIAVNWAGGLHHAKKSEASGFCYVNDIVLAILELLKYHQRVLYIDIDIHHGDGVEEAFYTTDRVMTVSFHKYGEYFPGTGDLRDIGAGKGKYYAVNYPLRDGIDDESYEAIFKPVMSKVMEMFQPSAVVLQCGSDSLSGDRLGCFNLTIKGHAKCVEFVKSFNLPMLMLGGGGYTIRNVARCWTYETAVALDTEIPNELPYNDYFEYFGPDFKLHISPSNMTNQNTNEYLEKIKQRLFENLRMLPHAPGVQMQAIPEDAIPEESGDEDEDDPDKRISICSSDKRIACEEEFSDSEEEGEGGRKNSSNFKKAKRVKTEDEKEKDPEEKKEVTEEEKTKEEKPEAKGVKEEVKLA

Columns and labels:
Ezh2 (in 293T cells) = Ezh2 (in 293T cells) (UniProt Q15910); assay: co-IP; 293T cells transfected with plasmids as indicated for 24 h; RIPA lysates, antibodies and protein A/G magnetic beads, western blot
HA-HDAC1 = HA-HDAC1 (UniProt Q13547); assay: as above
[1] = target: Ring1b (endogenous, breast cell lines) (human (endogenous in MCF-10A, MCF-7, MDA-MB-231)) (UniProt Q99496); assay: co-IP; lysate of 231 (MDA-MB-231) cells, endogenous proteins; antibodies and protein A/G magnetic beads, western blot
Flag-Snail1, O95863 = assay: co-IP; 293T cells transfected with plasmids as indicated for 24 h; RIPA lysates, antibodies and protein A/G magnetic beads, western blot; conditions: remark: other sources report otherwise
[2] = target: Ezh2 (in 293T cells), Q15910; assay: as above; conditions: remark: other sources report otherwise

binding (Ezh2 (in 293T cells)): binds
binding (HA-HDAC1): binds
B1: Flag-Twist2 (protein, UniProt Q8WVJ9 1-160)
chain: MEEGSSSPVSPVDSLGTSEEELERQPKRFGRKRRYSKKSSEDGSPTPGKRGKKGSPSAQSFEELQSQRILANVRERQRTQSLNEAFAALRKIIPTLPSDKLSKIQTLKLAARYIDFLYQVLQSDEMDNKMTSCSYVAHERLSYAFSVWRMEGAWSMSASH

binding [1]: binds
B2: CBX4 (endogenous, breast cell lines) (protein, UniProt O00257 1-560)
chain: MELPAVGEHVFAVESIEKKRIRKGRVEYLVKWRGWSPKYNTWEPEENILDPRLLIAFQNRERQEQLMGYRKRGPKPKPLVVQVPTFARRSNVLTGLQDSSTDNRAKLDLGAQGKGQGHQYELNSKKHHQYQPHSKERAGKPPPPGKSGKYYYQLNSKKHHPYQPDPKMYDLQYQGGHKEAPSPTCPDLGAKSHPPDKWAQGAGAKGYLGAVKPLAGAAGAPGKGSEKGPPNGMMPAPKEAVTGNGIGGKMKIVKNKNKNGRIVIVMSKYMENGMQAVKIKSGEVAEGEARSPSHKKRAADERHPPADRTFKKAAGAEEKKVEAPPKRREEEVSGVSDPQPQDAGSRKLSPTKEAFGEQPLQLTTKPDLLAWDPARNTHPPSHHPHPHPHHHHHHHHHHHHAVGLNLSHVRKRCLSETHGEREPCKKRLTARSISTPTCLGGSPAAERPADLPPAAALPQPEVILLDSDLDEPIDLRCVKTRSEAGEPPSSLQVKPETPASAAVAVAAAAAPTTTAEKPPAEAQDEPAESLSEFKPFFGNIIITDVTANCLTVTFKEYVTV

binding (Flag-Snail1, O95863): no binding
B3: Flag-DDX3X, O00571 1-662 (protein)
chain: MSHVAVENALGLDQQFAGLDLNSSDNQSGGSTASKGRYIPPHLRNREATKGFYDKDSSGWSSSKDKDAYSSFGSRSDSRGKSSFFSDRGSGSRGRFDDRGRSDYDGIGSRGDRSGFGKFERGGNSRWCDKSDEDDWSKPLPPSERLEQELFSGGNTGINFEKYDDIPVEATGNNCPPHIESFSDVEMGEIIMGNIELTRYTRPTPVQKHAIPIIKEKRDLMACAQTGSGKTAAFLLPILSQIYSDGPGEALRAMKENGRYGRRKQYPISLVLAPTRELAVQIYEEARKFSYRSRVRPCVVYGGADIGQQIRDLERGCHLLVATPGRLVDMMERGKIGLDFCKYLVLDEADRMLDMGFEPQIRRIVEQDTMPPKGVRHTMMFSATFPKEIQMLARDFLDEYIFLAVGRVGSTSENITQKVVWVEESDKRSFLLDLLNATGKDSLTLVFVETKKGADSLEDFLYHEGYACTSIHGDRSQRDREEALHQFRSGKSPILVATAVAARGLDISNVKHVINFDLPSDIEEYVHRIGRTGRVGNLGLATSFFNERNINITKDLLDLLVEAKQEVPSWLENMAYEHHYKGSSRGRSKSSRFSGGFGARDYRQSSGASSSSFSSSRASSSRSGGGGHGSSRGFGGGGYGGFYNSDGYGGNYNSQGVDWWGN

binding [2]: binds
B4: HA-Ring1b, Q99496 1-336 (protein)
chain: MSQAVQTNGTQPLSKTWELSLYELQRTPQEAITDGLEIVVSPRSLHSELMCPICLDMLKNTMTTKECLHRFCADCIITALRSGNKECPTCRKKLVSKRSLRPDPNFDALISKIYPSRDEYEAHQERVLARINKHNNQQALSHSIEEGLKIQAMNRLQRGKKQQIENGSGAEDNGDSSHCSNASTHSNQEAGPSNKRTKTSDDSGLELDNNNAAMAIDPVMDGASEIELVFRPHPTLMEKDDSAQTRYIKTSGNATVDHLSKYLAVRLALEELRSKGESNQMNLDTASEKQYTIYIATASGQFTVLNGSFSLELVSEKYWKVNKPMELYYAPTKEHK
